Assay results reported in the supplement of paper PMC11417369.
The other results are listed elsewhere or left out.

The sequences below were run on PfSIP2 AP2 domain 1 (GST-tagged) (assay: gcPBM binding intensity (ln(normalized median fluorescence intensity)); higher = stronger DNA binding).
How it was run: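 Using an Agilent 4 × 180k array, primer-extended double-stranded 36-bp intergenic genomic probes and negative controls were exposed for 1 h to GST-fused P. falciparum DNA-binding domains expressed in E. coli. Binding was carried out in 1× PBS with 1% milk, 0.2 mg/ml BSA, 0.5% salmon testes DNA and 0.03% Triton X-100, and protein was detected with Alexa488 anti-GST antibody and a 488 nm scan. Binding intensity is the highest Masliner-normalised natural-log median intensity across replicate spots of either probe orientation.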

Sequence | gcPBM binding intensity (ln)
ATAGGTAAAAAGTATACACACGTTGACACATTCTTT [CACACA_site4794] | 6.98
AAATAATACAAGGGCTGTACATAAAAAGGAGTATAT [XGTACX_site839] | 7.42
ATTTTAAAAAGGATAGTGCAAATGTTAAAATAGGAC | 8.74
ATTTATTTTCTGTGTACACATATGTTGGGTATTTTA [CACACA_site5902] | 7.53
AGAAAAAAAAAAAGTACACACATATAACATATAGAT [CACACA_site7410] | 6.9
GTATATATCCCAAAATGTACATAATTTATTATTTAT [XGTACX_site2842] | 7.17
CAAAAGGATGTGGGATGTACATATGAAAAAAAAAAA [XGTACX_site8059] | 7.02
TTTTATTTATAATACTCACACATTTATATTACATAT [CACACA_site6000] | 6.9
GGTCTTTTTTTCAAAAGTACATAAATAAAAAAGGTT [XGTACX_site2894] | 7.51
TTGTATGTAAAAAAGTGTACATGAGTGATTATATAA [XGTACX_site8166] | 7.16
TAAATTTAAAAATCTGCACACATTTAAAAAAAAAAA [CACACA_site2515] | 7.14
ATTACTAAAAAATATAAACACACATATATTTTACAT [CACACA_site8633] | 6.94
GAAAATTTAAAAAGAGTGCATTATATGTTTGAATAT [GTGCAC_site9564] | 9.18
CTTTTTTTCTTTCCAAGTACTAAATTCATACAAATT [XGTACX_site2605] | 7.05
AATAAAATAATAAAAGCACACAAGAATACACCCAAA [CACACA_site7919] | 7.03
TTTAACGAATAAAAATGTACAAATTTATACATTTAT [XGTACX_site2805] | 6.79
TATAAACCTTTTTGCACGCACACAAAAAAAAAATAA [CACACA_site168] | 7.85
AAACATATATACATATGTACATATATACATATATGT [XGTACX_site5779] | 7.12
TTCGGAAAAATTAAAGCACACAAAAAAAAATAAAAA [CACACA_site8296] | 7.17
GATTAACAACATATTAGTACATATATTATATATATA [XGTACX_site7646] | 8.17
GACTATAATGTTTTGGTGCGTCATGTTATGGTCATC | 8.51
CATATTTTATTATATACATGCAATTTTAATATATAT [TGCATGCA_site544] | 7.01
CACCCCCACAGACACACACACACACCGATATATATA [CACACA_site8010] | 7.89
TATAATTTAACGACATGTACATATAAAAAAATATTT [XGTACX_site2395] | 7.2
ATACACATTCTTCCGACATAATAAGAAAAAGAAAAA [CACACA_negctrl_site9] | 7.17
